# Measured values published in article PMC4336329 (PLoS ONE, 2015).
# The whole screen tested about 310,000 compounds, of which about 2,200 (0.71%) showed an effect of 50% or more. The effect is printed as a negative number. The list shows a part of the results.
# Molecular target: human ether-à-go-go-related gene (hERG) potassium channel (human, UniProt Q12809)
# Assay: primary screen, population patch clamp on CHO cells stably expressing hERG
# Sequence of human ether-à-go-go-related gene (hERG) potassium channel (Q12809 whole entry, looked up): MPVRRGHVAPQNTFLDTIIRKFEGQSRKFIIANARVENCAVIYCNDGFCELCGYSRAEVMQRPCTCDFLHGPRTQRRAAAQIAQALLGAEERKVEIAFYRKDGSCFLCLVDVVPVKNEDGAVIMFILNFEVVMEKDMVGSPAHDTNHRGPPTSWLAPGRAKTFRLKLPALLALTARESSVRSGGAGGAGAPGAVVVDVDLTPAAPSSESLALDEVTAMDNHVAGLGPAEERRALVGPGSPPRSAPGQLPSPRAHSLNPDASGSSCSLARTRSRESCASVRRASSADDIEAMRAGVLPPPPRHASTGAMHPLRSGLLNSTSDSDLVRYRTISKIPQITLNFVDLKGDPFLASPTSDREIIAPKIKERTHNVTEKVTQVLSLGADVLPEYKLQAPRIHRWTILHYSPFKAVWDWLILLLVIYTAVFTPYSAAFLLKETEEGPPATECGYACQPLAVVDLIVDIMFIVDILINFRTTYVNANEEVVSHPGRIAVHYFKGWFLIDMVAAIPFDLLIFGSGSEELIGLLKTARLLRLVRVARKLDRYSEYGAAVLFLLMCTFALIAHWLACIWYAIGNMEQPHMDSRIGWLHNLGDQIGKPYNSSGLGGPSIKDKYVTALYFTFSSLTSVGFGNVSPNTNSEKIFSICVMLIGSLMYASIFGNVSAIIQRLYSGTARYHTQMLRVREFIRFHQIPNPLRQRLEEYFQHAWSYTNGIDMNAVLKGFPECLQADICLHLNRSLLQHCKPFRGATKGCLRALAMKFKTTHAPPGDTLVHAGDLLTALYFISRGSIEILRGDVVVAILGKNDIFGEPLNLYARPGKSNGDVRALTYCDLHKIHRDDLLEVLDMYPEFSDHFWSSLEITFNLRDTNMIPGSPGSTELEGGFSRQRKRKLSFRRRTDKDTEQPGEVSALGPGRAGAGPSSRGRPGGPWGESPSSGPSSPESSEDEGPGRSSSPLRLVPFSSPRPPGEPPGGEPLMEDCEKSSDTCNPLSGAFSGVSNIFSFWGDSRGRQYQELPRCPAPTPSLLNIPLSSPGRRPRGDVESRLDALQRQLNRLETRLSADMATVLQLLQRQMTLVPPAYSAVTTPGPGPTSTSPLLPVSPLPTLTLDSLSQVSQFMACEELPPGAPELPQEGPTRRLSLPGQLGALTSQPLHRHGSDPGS
row,Compound,"hERG current change (%, negative = inhibition) at 1uM"
1,COc1ccc(CN2CCC(C(=O)Nc3ccc(Oc4ccccc4)nc3)CC2)cc1F,-37.8%
2,Cc1cnc(NC(=O)CCCc2nc3ccccc3s2)s1,0.54%
3,COc1ccc(CCN2CCCn3c2nc2c3c(=O)n(CC(N)=O)c(=O)n2C)cc1OC,11.6%
4,Cc1cc(Oc2ccc(=O)n(C)n2)nc(SCc2ccccc2)n1,10.1%
5,O=C(O)CC12CC3CC(C1)CC(n1ncc(NCc4ccccc4)c(Cl)c1=O)(C3)C2,11.3%
6,CCC(C)[C@H](NC(=O)[C@@H]1CSC2c3ccccc3C(=O)N21)C(=O)N1CCCCC1 (stereo partly drawn),8.7%
7,Cn1c(SCC(=O)Nc2ccc(N3CCOCC3)c(Cl)c2)nnc1-c1ccccc1,12%
8,NS(=O)(=O)c1ccc(CCNC(=O)C(=O)Nc2cc3c4c(c2)CC(=O)N4CCC3)cc1,5.38%
9,COC(=O)c1ccc(C)c(NC(=O)Cn2cnc3ccccc3c2=O)c1,-4.84%
10,COc1ccccc1Nc1nc(N2CCCC2)nc(N2CCOCC2)n1,19.3%
11,Cc1ccccc1NS(=O)(=O)c1ccc(C)c(C(=O)N2CCOCC2)c1,6.13%
12,CCOC(=O)c1cc2sccc2n1CCCN1C(=O)c2ccccc2C1=O,15.3%
13,Cn1c(SCC(=O)Nc2nccs2)nnc1-c1ccco1,6.02%
14,Clc1ccc(OCc2nnc(SCc3nc4ccccc4[nH]3)n2Cc2ccco2)cc1,2.11%
15,CC1CCN(c2ccc3nnc(CCC(=O)NC(C)C)n3n2)CC1,11.8%
16,O=C(CN(C(=O)c1csnn1)c1ccc(Br)cc1)NC1CCCCC1,13.7%
17,Nc1cccc(NC(=O)c2ccco2)c1,8.56%
18,Cc1nn(C)c(Oc2ccccc2)c1CCNC(=O)CC(C)C,8.21%
19,COc1ccccc1CC(=O)Nc1ccc2nc(C)sc2c1,11.2%
20,CCN1CCN(c2cc(C)c3cc(NC(=O)Cc4ccc(OC)c(OC)c4)ccc3n2)CC1,8.9%
21,O=C(/C=C/c1ccc(O)c(O)c1)O[C@@H]1C[C@](O)(C(=O)O)C[C@@H](O)[C@H]1O,11.5%
22,O=C(NCc1ccccc1)C1CCC1,19.8%
23,CCOC(=O)c1c(NC(=O)CN(C)C)sc(C(=O)N(CC)CC)c1C.O=C(O)C(=O)O,-1.61%
24,O=S(=O)(c1cc(Cl)ccc1Cl)N1CCCC1,5.68%
25,Nc1nc(SCC(=O)NC2CCCCC2)[nH]c(=O)c1-c1ccccc1,2.58%
26,COC(=O)c1onc(-c2c(Cl)cccc2Cl)c1C(=O)OC,20.9%
27,COCCCNC(=S)NNC(=O)c1ccccn1,17%

row,Compound,"hERG current change (%, negative = inhibition) at 1uM"
1,COc1ccc(CN(C(=O)c2cc3ccccc3oc2=O)C2CCCC2)cc1,-3.53%
2,CC(C)CN(C(=O)CC1CCCC1)c1c(N)n(Cc2ccccc2)c(=O)[nH]c1=O,4.91%
3,COc1ccc(CNC(=O)C(=O)NCCC2CCCCN2S(=O)(=O)c2ccc(C)cc2)cc1 (stereo not drawn),12.3%
4,CCC(CC)NC(=O)COC(=O)c1ccc(NS(=O)(=O)c2ccc3c(c2)OCCO3)cc1,2.14%
5,O=C(CNC(=O)Cc1ccccc1)NCc1cccc(C(F)(F)F)c1,7.73%
6,Cl.O=[N+]([O-])c1cccc(/C=N\N2CCN(Cc3ccccc3Cl)CC2)c1,15.9%
7,CCn1c(N)c(C(=O)NCc2ccco2)sc1=S,11.4%
8,Cc1ccc(N(CCC#N)C(=O)COC(=O)C2CCN(c3ccc(C(F)(F)F)cn3)CC2)cc1,6.66%
9,COc1cccc(CN2CCNC(=O)C2CC(=O)NCC(C)(C)N2CCOCC2)c1OC (stereo not drawn),15.9%
10,O=C(Nc1nc2ccsc2c(=O)s1)c1ccc(Cl)cc1,5.65%
11,CCOC(=O)c1ccc(NC(=O)CSc2nnc(Cn3c(=O)sc4ccccc43)n2C)cc1,12.1%
12,CC(C)(C)NC(=O)C(c1ccc(F)cc1)N(Cc1ccccc1Cl)C(=O)c1ccn[nH]1 (stereo not drawn),13.2%
13,COc1cccc(C2/C(=C(/O)c3cnn(-c4ccccc4)c3C)C(=O)C(=O)N2CCN(C)C)c1 (stereo not drawn),15.4%
14,COc1ccc(C)cc1-n1nnnc1SCC(=O)NC1CCS(=O)(=O)C1 (stereo not drawn),0.663%
15,Cc1ccc(NC(=O)C2CCCN2S(=O)(=O)c2ccc3c(c2)n(C)c(=O)c(=O)n3C)c(C)c1 (stereo not drawn),-1.59%
16,O=C(NCc1cccnc1)C(=O)NCC1OCCN1S(=O)(=O)c1ccc(F)cc1 (stereo not drawn),8.31%
17,O=C(CS(=O)(=O)c1cn(Cc2ccc(F)cc2)c2ccccc12)N1CCCCC1,3.03%
18,Cc1ccccc1NC(=O)CSc1nnc(Cc2ccccc2)o1,4.4%
19,O=S(=O)(c1cccc2nsnc12)N1CCN(c2ccccc2F)CC1,11%
20,CNCc1ccccc1Sc1ccc(OC)cc1.Cl,-7.21%
21,CCN(CC)CCOC(=O)c1ccc(NC(=O)CCCN2C(=O)S/C(=C/c3ccc(OC)cc3)C2=S)cc1,16%
22,CSc1nnc2c(n1)OC=Nc1ccc(Br)cc1-2,-5.82%
23,Cc1cc(C(=O)NNC(=S)NC(C)c2ccccc2)c2ccccc2n1 (stereo not drawn),12.8%
24,COc1ccc(CCNC(=O)COc2ccc(S(=O)(=O)NCC(C)C)cc2Cl)cc1OC,4.07%
25,COc1ccccc1-n1nnnc1SCC(=O)Nc1ccccn1,11.6%
26,Cc1ccc(C)c(OCCC(=O)OCC(=O)N(C)c2c(N)n(Cc3ccccc3)c(=O)[nH]c2=O)c1,1.98%
27,O=C(Nc1ccc(OC(F)F)c(Cl)c1)C(c1ccccc1)c1ccccc1,0.293%
